Measured values reported in a collection of fitness landscapes (doi:10.1016/j.celrep.2020.107928).
In all, about 81,000 sequences were measured (“one-hybrid fitness for binding parS DNA”: median about -0.17, highest 2% from about 0.51 on). This is one part of the list.

B1: Caulobacter ParB omega fusion; a variant is named by its letters at X, in order, B8GW30 (parent)
chain: MESVVVGEPGMSEGRRGLGRGLSALLGEVDAAPAQAPGEQLGGSREAPIEILQRNPDQPRRTFREEDLEDLSNSIREKGVLQPILVRPSPDTAGEYQIVAGERAWRAAQRAGLKTVPIMVRELDDLAVLEIGIIENVQRADLNVLEEALSYKVLMEKFERTQENIAQTIGKSXSHVANXMRLLXLPDEVQSYLVSGELTAXHARAIAAAADPVALAKQIIEGGLSVRETEALARKAPNLSAGKSKGGRPPRVKDTDTQALESDLSSVLGLDVSIDHRGSTGTLTITYATLEQLDDLCNRLTRGI

Variants of: B1
Experiment: one-hybrid fitness for binding parS DNA (scaled: cognate 1, non-cognate 0); higher = stronger binding
Conditions: with parS DNA site
Method in brief: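 Fitness here means the log change in variant-to-wild-type read ratio between plasmids sequenced before and after selection. That scale was set so cognate equals 1 and non-cognate equals 0. The selection was a bacterial one-hybrid screen of Caulobacter ParB libraries, four specificity codons randomised, in E. coli USO carrying a HIS3 reporter with the site 19 bp from the promoter, grown 48 hours at 37°C on M9-minus-histidine with 0.1 mM IPTG and 5 mM 3-AT.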

Row | Variant | one-hybrid fitness for binding parS DNA
1 | YRCA | ≤ 0.2
2 | WLGR | ≤ 0.2
3 | RTFR | ≤ 0.2
4 | VHNY | ≤ 0.2
5 | HYCR | ≤ 0.2
6 | QMHF | ≤ 0.2
7 | PMHA | ≤ 0.2
8 | EPNM | ≤ 0.2
9 | KHPS | ≤ 0.2
10 | KRAA | ≤ 0.2
11 | SHPN | ≤ 0.2
12 | RMPN | 0.262
13 | VIEL | ≤ 0.2
14 | HHYR | ≤ 0.2
15 | RQDW | ≤ 0.2
16 | VIYS | ≤ 0.2
17 | RNGN | 0.242
18 | QCFR | ≤ 0.2
19 | FVYS | ≤ 0.2
20 | EKTS | ≤ 0.2
21 | ITRS | ≤ 0.2
22 | RQRN | 0.451
23 | LKTK | ≤ 0.2
24 | WYRC | ≤ 0.2
25 | AMRA | ≤ 0.2

Row | Variant | one-hybrid fitness for binding parS DNA
26 | RAKW | 0.338
27 | WMDF | ≤ 0.2
28 | WSKS | ≤ 0.2
29 | PAVC | ≤ 0.2
30 | AIYG | ≤ 0.2
31 | KMKY | ≤ 0.2
32 | KLQC | ≤ 0.2
33 | HVAS | ≤ 0.2
34 | RRPE | ≤ 0.2
35 | GLWG | ≤ 0.2
36 | RTGY | 0.593
37 | TTQP | ≤ 0.2
38 | PRPC | ≤ 0.2
39 | KSDI | ≤ 0.2
40 | QLPH | ≤ 0.2
41 | CSGS | ≤ 0.2
42 | RRVD | ≤ 0.2
43 | NMIR | ≤ 0.2
44 | VDQG | ≤ 0.2
45 | KSYG | ≤ 0.2
46 | TCEN | ≤ 0.2
47 | YFPT | ≤ 0.2
48 | IPPV | ≤ 0.2
49 | EESL | ≤ 0.2
50 | QGRP | ≤ 0.2

Row | Variant | one-hybrid fitness for binding parS DNA
51 | APMG | ≤ 0.2
52 | ASMM | ≤ 0.2
53 | PPDT | ≤ 0.2
54 | KPVY | ≤ 0.2
55 | KRRQ | ≤ 0.2
56 | KAMY | 0.36
57 | IGRF | ≤ 0.2
58 | ETCV | ≤ 0.2
59 | NYKY | ≤ 0.2
60 | VPLC | ≤ 0.2
61 | DHTL | ≤ 0.2
62 | GLYY | ≤ 0.2
63 | QCHK | ≤ 0.2
64 | KLSE | ≤ 0.2
65 | GLDC | ≤ 0.2
66 | ISHS | ≤ 0.2
67 | LEYV | ≤ 0.2
68 | PSEQ | ≤ 0.2
69 | QTWG | ≤ 0.2
70 | LVVK | ≤ 0.2
71 | LNEW | ≤ 0.2
72 | RCQW | 0.24
73 | SYDM | ≤ 0.2
74 | RAHM | 0.329
75 | PNPI | ≤ 0.2

Row | Variant | one-hybrid fitness for binding parS DNA
76 | DCST | ≤ 0.2
77 | ENMW | ≤ 0.2
78 | QVLV | ≤ 0.2
79 | MLKF | ≤ 0.2
80 | AAEF | ≤ 0.2
81 | PWQI | ≤ 0.2
82 | WLGF | ≤ 0.2
83 | VPKV | ≤ 0.2
84 | GRSI | ≤ 0.2
85 | SSTC | ≤ 0.2
86 | CGKR | ≤ 0.2
87 | AHMS | ≤ 0.2
88 | HVES | ≤ 0.2
89 | YKRA | ≤ 0.2
90 | MVIG | ≤ 0.2
91 | RIVN | 0.407
92 | QNDT | ≤ 0.2
93 | NYLR | ≤ 0.2
94 | SDEG | ≤ 0.2
95 | GHLG | ≤ 0.2
96 | SGCS | ≤ 0.2
97 | PSEA | ≤ 0.2
98 | CPLF | ≤ 0.2
